Results taken from the supplement of paper PMC3334620.
Over roughly 33,000 sequences, “E-score (-0.5 to 0.5)” has its median near -0.021; the highest 2% begin near 0.32. This is one part of the list.

The sequences below were run against T1, Zap1 (UniProt P47043) (assay: PBM E-score (8-mer binding enrichment) (E-score (-0.5 to 0.5)); higher = stronger / more preferred TF binding; most listed sequences are background and not binding sites). Conditions: protein concentration: 200 nM; construct: GST-full length.
T1 sequence: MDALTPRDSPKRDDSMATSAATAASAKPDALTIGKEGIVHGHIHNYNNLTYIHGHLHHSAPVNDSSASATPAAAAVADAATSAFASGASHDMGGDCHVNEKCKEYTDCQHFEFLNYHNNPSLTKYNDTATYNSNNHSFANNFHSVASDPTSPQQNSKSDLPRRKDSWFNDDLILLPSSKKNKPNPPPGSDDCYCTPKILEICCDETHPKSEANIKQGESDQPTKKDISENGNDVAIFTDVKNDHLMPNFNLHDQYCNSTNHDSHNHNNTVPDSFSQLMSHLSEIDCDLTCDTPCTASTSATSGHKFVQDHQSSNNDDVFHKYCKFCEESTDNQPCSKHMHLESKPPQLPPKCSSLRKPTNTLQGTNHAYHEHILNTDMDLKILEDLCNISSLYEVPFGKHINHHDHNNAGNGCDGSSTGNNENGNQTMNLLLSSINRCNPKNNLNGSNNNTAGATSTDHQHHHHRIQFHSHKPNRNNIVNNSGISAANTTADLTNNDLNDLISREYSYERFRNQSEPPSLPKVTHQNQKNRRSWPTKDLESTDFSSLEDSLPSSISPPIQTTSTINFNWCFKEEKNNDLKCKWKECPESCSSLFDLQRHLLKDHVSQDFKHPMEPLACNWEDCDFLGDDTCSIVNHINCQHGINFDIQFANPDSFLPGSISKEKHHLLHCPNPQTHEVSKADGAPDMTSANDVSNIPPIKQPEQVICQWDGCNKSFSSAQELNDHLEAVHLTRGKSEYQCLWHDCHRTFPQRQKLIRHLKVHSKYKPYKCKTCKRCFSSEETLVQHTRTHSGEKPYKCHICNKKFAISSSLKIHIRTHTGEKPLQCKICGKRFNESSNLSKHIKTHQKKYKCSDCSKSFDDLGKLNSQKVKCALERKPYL
Outline: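 Each ungapped eight-base word and its reverse complement, pooled, received an E-score from the Universal PBM Analysis Suite. Underlying scans, normalised with masliner, recorded fluorescent anti-GST bound to GST-tagged yeast transcription factors. These were applied at about 100-200 nM to universal all-10-mer Agilent arrays double-stranded by primer extension.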

Row | Sequence | PBM E-score
1 | AAATACAA | 0.219
2 | CGGGGGTC | -0.0576
3 | CACTTCGC | -0.196
4 | GCCTGTAC | -0.185
5 | CGACGAGA | -0.29
6 | CCGGCTCG | -0.22
7 | GGGAACCC | 0.284
8 | CATGAAAA | 0.276
9 | TACATCAA | 0.0714
10 | AGATTTGG | -0.094
11 | CCGACTCG | -0.171
12 | CACAACCA | 0.343
13 | GAGTGGGC | -0.143
14 | AATTCTGC | -0.061
15 | AAGCGGCG | -0.171
16 | AACACTGA | 0.213
17 | GCAGAGCC | -0.296
18 | CTATTGCC | -0.25
19 | AACTCATC | 0.0136
20 | GGGCTAAC | -0.067
21 | CGGCGTGC | -0.264
22 | GTAATCCA | -0.0149
23 | CCGTTCAA | -0.0212
24 | AACGGAAG | -0.121
25 | AGAATCAA | -0.0486

Row | Sequence | PBM E-score
26 | CCGAAACC | 0.0667
27 | ACTCCATG | -0.248
28 | CACGCTAG | -0.21
29 | GTGCTACA | -0.104
30 | CTTGGCCC | -0.21
31 | CATCTGCA | -0.172
32 | GGATCCCC | -0.152
33 | GTTGCCCA | -0.0028
34 | AGCTTGTG | 0.0149
35 | TTCGAAAA | 0.151
36 | AGGATGAG | -0.0639
37 | TAGCAGAA | 0.158
38 | ATTTAGCA | 0.0848
39 | ACGTGGAA | 0.00571
40 | CCTCTGGC | 0.0164
41 | AGGGAGAC | -0.28
42 | ATACTCCC | -0.109
43 | AAGTAGTA | -0.129
44 | ACCAAGAA | 0.233
45 | CGCGAATC | -0.027
46 | ATGTCCCC | 0.00249
47 | AAGGCTCT | -0.178
48 | CACTCACC | -0.0852
49 | AGAAGAAT | -0.0761
50 | AGTCCCCC | -0.386

Row | Sequence | PBM E-score
51 | ATTACTTC | -0.152
52 | CCTTTGGA | 0.0536
53 | AGGATAGA | 0.0204
54 | AGATCCCC | -0.182
55 | CCTAATCA | 0.176
56 | CTTATATC | 0.119
57 | CTCTTAAA | 0.0701
58 | ATGGCATA | -0.0458
59 | AGTCTCGG | -0.0008
60 | AGCCCATG | 0.0154
61 | CGACTATA | -0.071
62 | CTATCCAC | -0.144
63 | ACACACGA | -0.0681
64 | AGCCCTAA | -0.00909
65 | ACTGGATC | -0.0832
66 | CGCCACTC | -0.113
67 | CAGATCAG | -0.0403
68 | ATACTGCA | -0.0688
69 | AAAGCGCC | -0.165
70 | CGTTCCTA | -0.0229
71 | AAATGAAT | -0.047
72 | AGATAATA | 0.0204
73 | AAACGTGG | -0.13
74 | AGAGAAAT | -0.15
75 | GAGGTGCA | -0.151

Row | Sequence | PBM E-score
76 | ACCATGAT | 0.218
77 | CTAGTCAA | -0.213
78 | CGGCCAAG | -0.192
79 | GGGTAGAC | -0.0919
80 | TTGGCAAA | 0.0688
81 | CTCTTGCA | -0.161
82 | TAATGGCA | 0.0922
83 | ATCTCACC | -0.0161
84 | ACATCCTC | -0.0838
85 | ACCTTGAC | 0.266
86 | CGCTCGCC | -0.149
87 | CTCCGCGA | -0.0822
88 | AGTCTCCA | -0.158
89 | CTGTATTC | 0.0469
90 | GCTCAAGA | -0.173
91 | GGTGTGTA | 0.0237
92 | CCGATGAG | -0.14
93 | CCGAATCC | -0.00486
94 | CCATTGCC | 0.0848
95 | ACGCTAAT | -0.0866
96 | ATCTCAAT | 0.0751
97 | ACAGTGCT | 0.0524
98 | CAGGACGG | -0.119
99 | ATTTAAAC | 0.239
100 | AGTCACTG | -0.112

Row | Sequence | PBM E-score
101 | GGCTGGAC | -0.214
102 | CTCCTTAA | -0.107
103 | ACGAACTC | 0.0404
104 | ATATGTCG | -0.00795
105 | TAACCTTA | 0.39
106 | CGTGTTCA | 0.0746
107 | GGTGGTGA | 0.23
108 | AATATACA | 0.126
109 | GGACGGTA | 0.022
110 | AGGACGAT | -0.0331
111 | CACGCGAC | -0.145
112 | AGGAACCG | 0.0672
113 | CGCGCATA | 0.00495
114 | ATCGGAAT | 0.0145
115 | ACATAAGG | 0.0989
116 | CCTCTGGA | 0.106
117 | GCCTGTCA | -0.177
118 | CCGTTCGC | -0.0498
119 | AACTGACG | -0.173
120 | CACATAAC | 0.284
121 | AGTTGAAG | -0.137
122 | CCGCAGCC | 0.0175
123 | AAGCAACC | 0.221
124 | ACACCCTA | 0.335
125 | AACACATC | 0.0331

Row | Sequence | PBM E-score
126 | GGTTACTA | 0.447
127 | ATCCGACG | -0.171
128 | AGAGCGCT | -0.183
129 | GCGACGAA | 0.0484
130 | ACGTAAAA | 0.0729
131 | CCTTTAAA | 0.175
132 | AAGCAATG | 0.0748
133 | TAAGGCTA | 0.0834
134 | AAGAGATT | -0.163
135 | CCGCACGC | -0.21
136 | ACCTTACA | 0.284
137 | GGAGATAA | 0.0611
138 | ATAGTGCC | -0.0934
139 | CCCTTGTC | 0.0604
140 | AGGATCCC | -0.0702
141 | GCTCCTAA | -0.175
142 | ACACGCAG | -0.123
143 | GGGATAAA | 0.232
144 | GCAACTGA | -0.0509
145 | GTCGGAAC | 0.00238
146 | GCTCAGAA | 0.194
147 | CCCTCGCA | -0.0324
148 | GGTCAAAC | 0.234
149 | ACTTTAAG | 0.128
150 | CCTTTTGC | 0.228

Row | Sequence | PBM E-score
151 | ACGCCTGC | -0.274
152 | GCATCCGC | -0.114
153 | CCTCACTA | 0.0133
154 | AAACAGAA | 0.0736
155 | ATCGGCCC | -0.134
156 | TATTAGGA | 0.0916
157 | AATTCCAA | 0.055
158 | CTCATACA | -0.0881
159 | CGGCGTAA | 0.00864
160 | CTTCCAGA | -0.0848
161 | GCATGTGA | -0.149
162 | ATGGGTCG | 0.0454
163 | GACATGCA | -0.0782
164 | GTCGCATA | 0.0804
165 | CGACAGCA | -0.0872
166 | AGGCCTTC | -0.0507
167 | CGACCTTC | 0.0461
168 | ACCTGAGT | 0.0343
169 | AGATACAG | 0.0524
170 | GATCTCGA | -0.127
171 | ACTGGCAG | -0.215
172 | CAGGAATC | -0.0261
